# According to PubChem BioAssay AID493208 (National Center for Advancing Translational Sciences (NCATS), 2011):
# The whole screen tested about 44,000 compounds, of which about 340 (0.77%) were called active. Another 5% or so got no clear call; they are omitted. Calls come from the whole dose curve; as a rule, active = well fitted inhibition curve with a large enough effect; inconclusive = small, poorly fitted or top-dose-only effect; inactive = flat fitted curve, though single readings scatter. The list shows a part of the results.
# Assay: Acumen qHTS Assay for Inhibitors of the mTORC1 Signaling Pathway in MEF (Tsc2-/-, p53-/-) Cells: Sytravon;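 note: plate controls were DMSO for no effect and rapamycin for full effect; nearly all actives have a fitted effect of over 50% in size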
# Settings: phospho-rpS6 immunofluorescence/PI, 24 h; series mostly up to 38.3 µM; activity change, negative = inhibition: at the top concentration
# How it was run: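 Tsc2-/-, p53-/- MEFs (empty-vector stable line) in DMEM + 10% FBS were treated with compounds 24 h at 37 degree Celsius, fixed, and immunostained for phospho-rpS6 (Alexa-488) with propidium iodide counterstain. Laser-scanning cytometry gave % positive cells, normalized against 7.5 nM rapamycin and DMSO.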
row,SMILES,"activity change, negative = inhibition"
1,CCCCC(CC)CNC(=O)C1CCN(S(=O)(=O)c2cccc3nsnc23)CC1 (stereo not drawn),inactive: 2.77%
2,Cc1ccc(C)c(N2CCN(CCCNC(=O)Cn3ncc4c5ccccc5n(C)c4c3=O)CC2)c1,inactive: -6.45%
3,COc1ccccc1N1CCN(C(=O)c2cc3c(=O)n(Cc4ccco4)ccc3nc2C)CC1,inactive: -8.65%
4,N#Cc1nc(-c2ccc(COc3ccc(Cl)cc3)o2)oc1N1CCN(c2ccccc2)CC1,inactive: -2.63%
5,Cc1ccc(NS(=O)(=O)c2c(C(=O)N3CCC(C)CC3)c(C)n(C)c2C)cc1Cl,inactive: 10.8%
6,CCOc1ccc(NC(=O)CCn2cnc3onc(-c4ccc(F)cc4)c3c2=O)cc1,inactive: -0.703%
7,Cc1ccc(CN2CCSc3ccc(C(=O)N4CCN(c5cc(C)ccc5C)CC4)cc32)cc1,inactive: -13.4%
8,O=C(CSc1nc2c(oc3ccccc32)c(=O)n1-c1ccccc1F)Nc1ccccc1,inactive: -8.11%
9,CCOC(=O)c1c(S(=O)(=O)N2CCCC(C(=O)N3CCN(c4cccc(C)c4C)CC3)C2)c(C)n(C)c1C (stereo not drawn),inactive: -1.85%
10,Cc1ccc(Nc2c3c(nc4nncn24)CCC3)cc1C,inactive: -2.08%
11,CC(C)CN1CCc2nc(N3CCN(C)CC3)ncc2C1,inactive: 7.16%
12,O=C(CN1C(=O)COc2ccc(S(=O)(=O)N3CCOCC3)cc21)NCc1ccc(F)cc1,inactive: 5.16%
13,CCOc1cc(S(=O)(=O)n2ccnc2C(C)C)ccc1Cl,inactive: -3.43%
14,CCn1cc(C(=O)N2CCN(c3ccccc3F)CC2)c(=O)c2cc(S(=O)(=O)N(C)C3CCCCC3)ccc21,inactive: -2.01%
15,COc1ccc(-c2cc3ccc(O)c(CN4CCOCC4)c3oc2=O)cc1,inactive: -0.588%
16,CC(=O)N1CCc2cc(Br)cc(S(=O)(=O)N3CCC(C(=O)N(C)c4cc(C)ccc4C)CC3)c21,inactive: 5.03%
17,Cc1cccc(NC(=O)CSc2nc(-c3ccco3)nc3cc(=O)[nH]n23)c1,inactive: 5.73%
18,COc1cc(NC(=O)c2ccccc2)ccc1NC(=O)c1cc2ccccc2o1,inactive: 9.23%
19,COC(=O)c1c(SC)nc2ccccc2c1OCc1ccccc1C,inactive: 9.67%
20,COc1ccc(-c2ccc3c(N)c(C(=O)NCc4ccc(Cl)cc4)sc3n2)cc1,inactive: -18.5%
21,O=C(CCn1c(=O)c2ccccc2n(Cc2ccc(F)cc2Cl)c1=O)NCc1ccc2c(c1)OCO2,inactive: -4.06%
22,CCc1ccc(NC(=O)C2CCN(S(=O)(=O)c3ccc4[nH]c5c(c4c3)CCCCC5)CC2)cc1,inactive: -6.95%
23,Cc1cccc(C)c1NC(=O)Cn1c(=O)n(CC2CCC(C(=O)NCCc3ccccc3)CC2)c(=O)c2ccccc21 (stereo not drawn),inactive: -3.67%
24,CCOC(=O)c1noc2ncnc(Nc3ccc(F)cc3F)c12,inactive: -2.93%
25,CCOC(=O)C1CCN(C(=O)C2CCN(C3=NS(=O)(=O)C(c4ccc(C)cc4)=C3CC)CC2)CC1,inactive: -5.06%

row,SMILES,"activity change, negative = inhibition"
1,CCOC(=O)CSc1nc2c(sc3ccccc32)c(=O)n1CCc1ccccc1,inactive: 3.65%
2,Cc1ccc(CNC(=O)C2CCN(c3nc4ccccc4n(C)c3=O)CC2)cc1,inactive: -4.45%
3,O=[N+]([O-])c1cc(-c2nc(-c3ccccc3)no2)ccc1N1CCN(c2ccccc2)CC1,inactive: -1.18%
4,CC(=O)c1ccc(S(=O)(=O)Nc2cccc(-c3ccc(N4CCCCC4)nn3)c2)cc1,inactive: 3.03%
5,Cn1cc(S(=O)(=O)N2CCCCCC2)cc1C(=O)N1CCN(c2cccc(Cl)c2)CC1,inactive: 4.36%
6,Cc1ccc(NC(=O)Cn2nnc(-c3nc(-c4ccncc4)no3)c2N)cc1,inactive: -2.09%
7,Cc1ccc(C(=O)O)cc1Nc1nc2ccccc2n2nnnc12,inactive: -8.49%
8,CCCOc1ccc(CNC(=O)C(CC)n2nc(C)c3sc4ccccc4c3c2=O)cc1 (stereo not drawn),inactive: -3.99%
9,CCOc1ccc2nc(C)cc(Nc3ccccc3OCC)c2c1,inactive: 21%
10,COCCNC(=O)c1c(C)oc2nc(C)nc(N3CCOCC3)c12,inactive: -2.61%
11,CCOC(=O)c1c(NC(=O)c2ccccc2Cl)sc2c1CCCC2,inactive: -18.7%
12,Cc1ccc(-c2nnc(SCc3ccccc3C#N)o2)cc1,inactive: -5.26%
13,COc1cccc(-c2nc(CS(=O)(=O)CC(=O)NCc3ccc(C)cc3)c(C)o2)c1,inactive: -0.593%
14,CCOc1cc(-c2nc3c(c(CC)nn3-c3ccccc3)c3cc(OC)c(OC)cc23)ccc1O,inactive: 11.5%
15,Cc1cccc(OCC(=O)OCc2cc(=O)n3nc(C4CCCCC4)sc3n2)c1,inactive: -9.64%
16,CCOC(=O)C(CC)n1nc(C)n2c(cc3occc32)c1=O (stereo not drawn),inactive: -2.19%
17,COc1ccc(C(=O)COC(=O)c2cccc(NC(=O)c3ccc(OC)c(OC)c3)c2)cc1,inactive: -18.1%
18,COc1ccc(C(=O)c2cn(Cc3ccc(F)cc3)c3ccc(C)cc3c2=O)cc1,inactive: -8.93%
19,Cc1csc2nc(-c3cccc(NC(=O)c4ccccc4Cl)c3)cn12,inactive: -32.9%
20,Cc1ccc(-c2nc3ccccn3c2Nc2ccc3c(c2)OCO3)cc1,inactive: -14%
21,O=C(NC1CCCCCC1)C1CCN(C(=O)N2CCOc3ccccc32)CC1,inactive: -2.23%
22,Cc1ccc(S(=O)(=O)NCC(c2ccc(N(C)C)cc2)N2CCOCC2)cc1 (stereo not drawn),inactive: 7.88%
23,COc1cc(OC)c(N(C)C(=O)Cn2ncc3c([nH]c4ccccc43)c2=O)cc1Cl,inactive: 0.677%
24,O=c1c2cc3c(cc2nc2sc(Nc4ccc(F)c(Cl)c4)nn12)OCO3,inactive: -1.51%
25,Cc1nc(C)c(-c2ccc(SCC(=O)Nc3ccc(F)c(F)c3)nn2)s1,inactive: -7.79%

row,SMILES,"activity change, negative = inhibition"
1,COc1cc(/C=C(\C#N)c2nc3ccccc3n2C)cc(OC)c1OC,inactive: 3.1%
2,Cc1ccc(NC(=O)c2cc(S(=O)(=O)N3CCCC(C)C3)cn2C)c(Br)c1 (stereo not drawn),inactive: -4.85%
3,CCOc1ccc(CNC(=O)c2cc3ccccn3n2)cc1OC,inactive: 0%
4,Cn1c(=O)c2c(-c3cccc(Br)c3)n(CCO)cc2n(C)c1=O,inactive: 1.2%
5,CCN1CCN(c2oc(/C=C/c3ccccc3OC)nc2C#N)CC1,inactive: -8.22%
6,CCOC(=O)c1c(-c2ccc(C)cc2)csc1NC(=O)c1nc(SCC)ncc1Cl,inactive: 5.71%
7,COc1cccc(NS(=O)(=O)c2ccc3[nH]cc(C(=O)N4CCCCCC4)c(=O)c3c2)c1,inactive: -14.7%
8,CC1CCN(CCCNC(=O)c2cc(Sc3ccc(F)cc3)nc3ccccc23)CC1,inactive: -17.3%
9,CCc1ccc(CN(Cc2cn[nH]c2-c2ccc(OC)cc2)C(=O)Nc2ccc(C)c(F)c2)cc1,inactive: -0.09%
10,Nc1cccc(-c2cn3ccsc3n2)c1,inactive: -0.663%
11,CCOC(=O)c1c(-c2ccccc2)oc2ccc(NS(=O)(=O)c3ccc(C)cc3C)cc12,inactive: -0.616%
12,COc1ccc(Cn2c(=O)c3cccnc3n(Cc3cccc(OC)c3)c2=O)cc1,inactive: -8.01%
13,O=C(NC1CC(=O)N(c2cccc(F)c2)C1)C1CC1 (stereo not drawn),inactive: 3.32%
14,Cc1ccc(NC(=O)c2oc3ccccc3c2NC(=O)c2ccccc2C)cc1,inactive: -10.6%
15,CSc1nnc(NC(=O)Cc2coc3cc(C)ccc23)s1,inactive: -0.397%
16,Cc1cc(C)c(NC(=O)CSc2ccc(-c3sc(-c4ccccc4)nc3C)nn2)c(C)c1,inactive: 0.955%
17,Cc1cc(C)c(NC(=O)CSc2nc3nc(C)cc(C)n3n2)c(C)c1,inactive: 4.38%
18,CCN(CC)c1cc(C)c2cc(NC(=O)c3ccccc3OC)ccc2n1,inactive: -22.9%
19,CCCCn1c(SCC(=O)NCCCOC)nc2c(sc3ccccc32)c1=O,inactive: -1.69%
20,CCn1c(=O)c2sccc2n2c(CCCC(=O)N3CCN(c4cc(Cl)ccc4C)CC3)nnc12,inactive: -1.55%
21,O=C(CSc1nc(-c2ccc(F)cc2)[nH]c1-c1ccccc1)NCC1CCCO1 (stereo not drawn),inactive: -12.4%
22,COc1ccc(-c2nnc(SCC(=O)NCc3ccc(C)cc3)nc2-c2ccc(OC)c(OC)c2)cc1OC,inactive: -0.0959%
23,CCCCOc1cccc(C2c3c(oc4ccccc4c3=O)C(=O)N2c2ccccn2)c1 (stereo not drawn),inactive: -0.123%
24,CCS(=O)(=O)N1CCC(n2c(C(F)(F)F)nc3cccnc32)CC1,inactive: -0.202%
25,COc1ccccc1N1CCN(c2ncccc2-c2nc(-c3ccc(Cl)cc3)no2)CC1,inactive: -0.0356%

row,SMILES,"activity change, negative = inhibition"
1,CCc1ccc(C(=O)c2cn(CC(=O)Nc3ccc(OC)c(OC)c3)c3ccc(C)cc3c2=O)cc1,inactive: -5.8%
2,O=c1c2c(-c3ccccc3)ccnc2[nH]n1-c1ccccc1,inactive: 0.668%
3,COCCN1C(=O)c2[nH]nc(-c3ccccc3O)c2C1c1ccc(Cl)c(Cl)c1 (stereo not drawn),inactive: 0%
4,O=C(CCN1N=C(c2ccccc2)CCC1=O)NCCc1ccc(Cl)cc1,inactive: -1.06%
5,Cc1nn(C(=O)c2c(F)cccc2F)c(C)c1S(=O)(=O)N1CCOCC1,inactive: -4.7%
6,COc1ccc(CCNC(=O)c2ccc3c(c2)N(Cc2ccccc2F)C(=O)c2ccccc2S3(=O)=O)cc1OC,inactive: 1.75%
7,Cc1ccc(CN(Cc2ccco2)C(=O)COc2cc(C)c(Cl)c(C)c2)cc1,inactive: -3.34%
8,O=C(NCCc1ccccc1)c1cc(S(=O)(=O)N2CCCCC2)c[nH]1,inactive: -8.21%
9,CCOC(=O)c1cnc2c(ccc3ccccc32)c1Nc1cccc(OC)c1,inactive: 8.49%
10,Cc1ccc(NC(=O)/C=C/c2ccc(C)o2)c(C)c1,inactive: -0.524%
11,Cc1cccc(N2CCN(C(=O)c3cc4c(=O)oc5ccccc5c4s3)CC2)c1C,inactive: -4.92%
12,Cc1cc(C(F)F)n2nc(C(=O)Nc3c(C)cccc3C)nc2n1,inactive: 4.43%
13,Oc1c(C(c2ccccc2Cl)N2CCCC2)sc2nc(-c3ccco3)nn12 (stereo not drawn),inactive: -2.02%
14,CCOc1ccc(N(CC(=O)NCc2ccccc2Cl)S(=O)(=O)c2c(C)[nH]c(=O)[nH]c2=O)cc1,inactive: 0.255%
15,CC(=O)Nc1ccc(NC(=O)CSc2nc3ccccc3nc2N2CCOCC2)cc1,inactive: -9.14%
16,COc1ccc(S(=O)(=O)N2CCC(Oc3ccc(-n4cnnn4)cc3)CC2)cc1OC,inactive: -2.33%
17,CCOc1ccc(C(=O)c2cn(Cc3ccccc3OC)c3ccc(F)cc3c2=O)cc1,inactive: 7.85%
18,COc1ccc(-n2c(CC3C(=O)N(C)c4ccc(C)cc43)nc3ccccc3c2=O)cc1 (stereo not drawn),inactive: -5.33%
19,CCc1ccc(NC(=O)CN(c2ccc(OC)cc2)S(=O)(=O)c2c(C)[nH]c(=O)[nH]c2=O)cc1,inactive: 1.53%
20,COc1ccc(CCNc2ncnc3c2cnn3-c2ccc(C)cc2)cc1,inactive: 13.4%
21,CN1C(=O)c2ccccc2Sc2ccc(NC(=O)COc3ccc(F)cc3)cc21,inactive: -4.44%
22,Cc1ccccc1C(=O)Nc1nnc(S(=O)(=O)N2c3ccccc3CC2C)s1 (stereo not drawn),inactive: -0.891%
23,COc1ccc(C2C(=O)N(C3CCCCCC3)CC(=O)N2Cc2ccc(C)cc2)cc1OC (stereo not drawn),inactive: 9.35%
